# Read counts are not given, so values of variants with three or more changes are uncertain.
# B1: LINE1-mini (parent)
# chain: GGCAGAGCUCAACACAGCGUGGCAAAGUGGCUGUGGCUAGACUGCC
# Variants of: B1
# Assay: self-cleavage, relative activity (ratio to wild type); higher = more cleavage; in vitro, sequencing; the parent is a self-cleaving ribozyme
row,Variant,self-cleavage
1,G5A G21A G27C U38A,0.13
2,G2C G7U A41G,0.07
3,C3U A11G G19A U28A,0.01
4,C13U A16U G33U C42A,0.07
5,C13A C15U A16U G44A C45G,0.2
6,G1A C18U G19C G27A,1.79
7,A16U G17U A25G U32C,0.09
8,A6C C8A C15A A41G,0.17
9,A6C G21U G36A,0.05
10,C8A C10U G33A U38C,0.04
11,C8A U34C U38C,0.19
12,G5C G7U C18U C42U,0.11
13,G1U A6G A12G G17A G19U G21U,0
14,G21U U28G C45A,0.18
15,G1C A4C U9A C42A,0.03
16,C3A A4C A14C G35C C42A,0.07
17,G5U G19A C37U C45U,0.03
18,G2A C10U C31G,0.11
19,C3U G5A A24G G30C,0.06
20,A4U A16U G19U G44U,0.05
21,G2C G29C U34C,0.1
22,G5U A25C G30A,0.09
23,A14U G35U U38A,0.01
24,A4C A11C G22A A25G U38G,0.01

row,Variant,self-cleavage
1,G27U A39G G40U,0.15
2,A4G C31A G35A,0.04
3,G2A C10G G19U C23U G33U,0.04
4,C13G C15U C31A U32G,0.09
5,G19A A24G G27U,1.19
6,G7U G21A C23U A25U G40C A41C,0.35
7,A4C C8G G35A A41U,0.28
8,G5C A6C A14C A16G,0.05
9,C3A A6G A14U C15U G35U,0.22
10,C10U G22A G44C,0.26
11,C23G C37U A41G,0.06
12,A6G G19U C31A U34C,0.01
13,G36A G40A G44U C45A,0.03
14,G19A G27A U28A C42G,0
15,A6G A14U C31U C42U,0.02
16,G22U C37A C46A,0.01
17,U9A A11U G21A U43C,0.02
18,A6C A11U A14U A39C,0.03
19,G5U C10A C13A,0.02
20,A14G A16G G17U G36U,0.02
21,A4G C8U C15G G29U,0.28
22,A6G A14C G17C U34G G35C A41U,0.05
23,A4U C13A G36U,0.15
24,A14U G17C G22A C23U U28C,0.4

row,Variant,self-cleavage
1,C13U A25C G27A G44U,0.01
2,G2A C15A A16G G22U,0.06
3,A6C G27C G33C,0.03
4,A14C C15A A16U C37A,0.05
5,C10U A12C C13G G27U C31A,0.02
6,C10A A26C A39C,0.04
7,C8A A11C C23A G27A G40A,0
8,U9A G21C G27C G30A,0.01
9,C23G U38A C45G,0.09
10,G7U G30U U34A G40A A41U,0.01
11,A6U G7C C23U A24U G30A,0.36
12,G7A C8A C18G U20G U32A,0.09
13,G2A G22U G29C C31U,0.13
14,U20C U32C C45G,0.03
15,G7U U38C G40U,0.06
16,G7A C8U C18U G44A C45A,0.12
17,A11G G17A C31A G36A,0.03
18,G7U C8A A12U C13G A14C G19C G29C U38A,0.24
19,C8A C10U C31U A41G C46G,0.02
20,G7A U20A C23U,0.05
21,A16U A25U A26C G30C C31G U38G,0.01
22,C3U G7A G35C,0.07
23,G2A A14U U20A G44U,0.23
24,C13U G27A G33C C45U,0.04

row,Variant,self-cleavage
1,G2C C3G G7C G30U G36C,0.12
2,C13U C15U G19C G27A G29C U43C,0.1
3,A25G U38A A39U G44C,0.11
4,G5U C10U A39C C46G,0.01
5,A11C G29C U34A,0.03
6,G2A C10G G27C U28A,0.03
7,C15A G21A A25G,0.14
8,G5A A6G A14C A24U G33C C37G,0.01
9,G7U C10A A24U U34A,0.03
10,C8U U20G A41G,0.02
11,G2A U20G U28G C31A C45U,0.06
12,G2C G7U C8U G22A C42U,0.09
13,G2A C10G G21A G30C C31U,0.02
14,A11U C13G A16G G17C G27U G30C G40A,0.01
15,G5A C13A C15A C42G,0.06
16,A4C A6G C23U,0.03
17,U9G A12G G19A U32C,0.03
18,C3U G19C G27C U28C C37A,0.01
19,U20G G21A C31U U38C U43A,0
20,U9C G17A G30C U34A G36U U38C C46G,0
21,U9A C15U A39U A41G,0.31
22,U20A U43C G44U,0.11
23,A14C G29C C45U,0.04
24,G19A G21U A39G,0.07

row,Variant,self-cleavage
1,A16U G30C G33U U38A A41C,0.03
2,G2A A12U A16C C37A,0.16
3,C10G C23U U43G,0.03
4,G19U U20C A41U,0.39
5,A4U G19C C42A,0.03
6,A6G A16G G17C C42G,0.02
7,A16U G30C C37G,0.03
8,A24C G36C A41U,0.13
9,G17C G30A G33A C37U,0.02
10,G2C G7C G19C G27U U28G G36C,0.02
11,G7C C8G G17U A26U U28G,0.22
12,G5U C8A C31U U32G G35U,0.02
13,C8U A41G G44U,0.29
14,A11U G22A C45A,0.03
15,C18A U20A U34A,0.04
16,C10A C15U C37G A39U,0.01
17,C8U C10A A14U C15G C42U G44C,0.01
18,C3A A26G C31A G40U A41G C42U,0.03
19,G1A A6C G22C G44A,0.4
20,G1U G7U C8U G29A,0.02
21,C31G G33A G35U,0.03
22,U9C G27U G36U,0.01
23,A4G A11U G22A G29A C46A,0.01
24,A25U G33C C46G,0.04

row,Variant,self-cleavage
1,G19A G33U C46U,0.1
2,U9G G22U G27U C31G U34G G44A,0.02
3,A14C G22U G44U,0.12
4,G1C A11C C23A G33A U38C,0.01
5,G7U C10A C37G,0.04
6,C23A C31A A39U G40C,0.02
7,G5U A11G G17U A25G G33A G36C C45A,0
8,G7U C18U C45G,0.65
9,G33U C37G A41C,0.03
10,A16G G27A U43G,0.02
11,A12U G22A G27A U38G,0
12,G7U C15U G17C,0.07
13,A14G G29U U32C,0.03
14,G1C A26C U28G G33U,0
15,G2A C8A C42U,0.26
16,C8G C10U G19U,0.03
17,U9G A14U U20A,0.04
18,G5U U32G G40U G44A,0.09
19,A11G G17U C23U,0.03
20,G1C U9A C23G A26G,0.08
21,C3G A11C C13U C15A,0.02
22,C10G A16U U20G C31A C42G,0
23,U9G C10A A16U,0.03
24,G1A G2C G5U C42U,0.02

row,Variant,self-cleavage
1,G2U U9C C10U U34C A41U,0.03
2,C10U C31G C42A,0.02
3,A6C G19A A24C,0.46
4,G5U G19U G22A A24C C31U,0.04
5,C13A G19U A24G A25G,0.13
6,C3G A16G C18G G19U U38G,0.07
7,A26C C37U G40A,0.1
8,A14U G40U U43G C46A,0.02
9,C3A G27C C31U,0.06
10,C13A C18A U32G,0.02
11,C13G G17C A26U,0.17
12,G2A G21U A25G G35U,0.13
13,G1A G7A A11C U20C,0.07
14,C8U A16U G27A,0.07
15,U28G A41C C45G,0.04
16,C18A G27C U32G,0.23
17,C15A U20G G22U,0.07
18,G1C C3U C45G,0.33
19,C10A A14C A26U,0.03
20,C3A C15A G29U U43C,0.16
21,C15A G27A G40A G44C,0.03
22,G1U A25C C37U,0
23,G17C G27U C37U,0.04

# — the RNAGym collection of RNA variant scans (doi:10.7554/elife.90254)
